Experimental data reported in PubChem BioAssay AID662 (National Center for Advancing Translational Sciences (NCATS), 2007).
Screen size: about 71,000 compounds; about 1,800 (2.5%) were called active. The inconclusive results got no clear call from the source; some entries with a clear call stand among them for comparison. Calls follow the shape of the dose curve; as a rule, active = well fitted activation curve with a large enough effect in the signal ratio, with a control signal flat (not every such curve was filed as active); inconclusive = small, poorly fitted or top-dose-only effect, or effect the other way, or a change in a side signal; inactive = flat fitted curve, though single readings scatter; the % refers to the signal ratio. A potency beside an inconclusive call is a rough fit, not a confirmed value.

assay: Cell signaling CRE-BLA (Fsk stim); settings: CHO CRE-bla reporter (cAMP response element driving beta-lactamase), forskolin EC10, beta-lactamase ratio; activity change, negative = inhibition: at 38.2 µM (top of the series) unless noted; as to activity change, negative = inhibition: % of control where 0% means no effect
In short: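 Titrated compounds plus EC10 NKH 477 on CHO CRE-bla cells, 3 h, 37 °C. CCF4, 2 h RT. Ratio 460/530 nm → AC50.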
Potency is read from the fitted curve at half-maximal effect; tags tell the direction and shape of the fitted curve.

Row | Structure (SMILES) | activity change, negative = inhibition | Potency
1 | O=C1CC(N2CCN(Cc3ccccc3)CC2)C(=O)N1CCc1ccccc1 (stereo unspecified) | inactive | –
2 | COc1ccc(Nc2cc(=O)n(C3CCCCC3)c(=O)[nH]2)c(OC)c1 | – | inconclusive: 10 µM [falling, partial curve]
3 | O=c1n(CCCN2CCN(c3cccc(Cl)c3)CC2)nc2ccccn12 | inactive | –
4 | N#Cc1nc(-c2ccc(F)cc2)oc1NCCN1CCOCC1 | – | inconclusive: 10 µM [rising, partial curve]
5 | Cc1ccc(NC(=O)CSc2nnc(Cc3cccn3C)n2-c2ccc(F)cc2)c(C)c1 | inactive | –
6 | CN(C)CCCNc1cc(O)c2c(c1O)C(=O)c1ccccc1C2=O | inactive: 26.3% [at 7.6 µM] | –
7 | Cc1ccccc1OCC(O)Cn1c(=N)n(CCN2CCOCC2)c2ccccc21 (stereo unspecified) | inactive | –
8 | Oc1ccc(Cl)cc1Sc1cc(Cl)ccc1O | inactive: 0.0235% [at 7.6 µM] | inconclusive: 31.6 µM [falling, single point]
9 | Cc1cccc(Cn2c(=O)n(Cc3ccco3)c(=O)c3ccccc32)c1 | inconclusive: -3.37% | –
10 | O=c1c(-c2ccc3c(c2)OCCO3)coc2c(CN3CCOCC3)c(O)ccc12 | inactive | –
11 | CCOc1ccc(CCN2C(=O)CCC2(C)C(=O)NC(C)CC)cc1OCC (stereo unspecified) | inconclusive: 12.7% | –
12 | CN(C/C=C\c1ccccc1)Cc1cccc2ccccc12 | inactive | –
13 | Cc1sc2nc(SCC(=O)N(CCO)CCO)n(C3CCCCC3)c(=O)c2c1C | – | active: 12.6 µM
14 | NC(=O)C1(N2CCCCC2)CCN(C(=O)CSc2nc(C(F)(F)F)cc(=O)[nH]2)CC1 | inactive | –
15 | CCC(C)(C(=O)NC1CCCC1)N(C(=O)c1ccccn1)c1ccccc1 (stereo unspecified) | inconclusive: -22.7% | –
16 | COc1cccc(Cn2c(=O)c(C)nc3cnc(Nc4cccc(OC)c4)nc32)c1 | – | inconclusive: 7.94 µM [rising, partial curve]
17 | CCOC(=O)N1CCC(c2cc(=O)n3[nH]c(-c4ccccc4)cc3n2)CC1 | inactive | –
18 | c1csc(CNc2nc(-c3ccc4c(c3)OCO4)nc3ccccc23)c1 | inconclusive: 22.4% | –
19 | COc1ccc(C(=O)c2ccc(N(C)C)cc2)c(OC)c1 | inconclusive: 5.95% | –
20 | CN(C)c1ccc(NC(=O)CCCc2ccccc2)cc1 | inconclusive: -9.06% | –
21 | CC1CCN(CCNC(=O)c2ccc3c(=O)n(CCc4ccccc4)c(=O)[nH]c3c2)CC1 | inactive | –
22 | O=c1c2ccccc2nnn1CSc1nnc(-c2cccnc2)n1-c1ccccc1F | inconclusive: 29.7% | –
23 | CC1(C)O[C@@H]2C[C@H]3[C@H]4C[C@H](F)C5=CC(=O)CC[C@]5(C)[C@@H]4[C@H](O)C[C@]3(C)[C@]2(C(=O)CO)O1 | inactive | –
24 | Cc1cc(C)n2nc(SCc3nc4ccccc4[nH]3)nc2n1 | – | active: 0.794 µM
25 | CCNc1ncc2nc(-c3ccc(OC)cc3)c(=O)n(Cc3ccc(F)cc3)c2n1 | – | inconclusive: 0.631 µM [rising, full curve]
26 | COc1ccc(C(=O)COC(=O)CN2C(=O)C3C4C=CC(C4)C3C2=O)cc1 (stereo unspecified) | – | inconclusive: 7.94 µM [rising, partial curve]
27 | Oc1cccc(-c2nc3ccccc3s2)c1 | inactive | –

Row | Structure (SMILES) | activity change, negative = inhibition | Potency
28 | CCCn1c(=O)c2[nH]c(C3CCCC3)nc2n(CCC)c1=O | inconclusive: 25.1% | –
29 | CC1(C)Cc2ccccc2-c2nnc(SCc3ccc(C#N)cc3)n21 | inconclusive: 24.3% | –
30 | COc1ccc(CCNc2oc(COc3ccc(Br)cc3)nc2C#N)cc1OC | inconclusive: -15.7% | –
31 | O=C(Nc1nc2c(s1)CCCC2)c1ccc2ncsc2c1 | – | inconclusive: 10 µM [rising, single point]
32 | Cn1c(N)c(C(=O)COC(=O)c2ccc3c(c2)OCCO3)c(=O)n(C)c1=O | inconclusive: 27.3% | –
33 | O=C(Nc1cnn(Cc2ccc(Cl)cc2Cl)c1)c1cc(-c2cccs2)on1 | inactive | –
34 | Cc1noc(C)c1-c1cc(N(C)C)ncn1 | inactive | –
35 | N#Cc1nc(Cc2ccccc2)oc1NCc1cccnc1 | – | inconclusive: 25.1 µM [rising, single point]
36 | Cc1ccccc1C(=O)c1cccn1CC(=O)NCC1CCCO1 (stereo unspecified) | inconclusive: 6.37% | –
37 | CCC(=O)c1ccc2c(c1)N(CCCN(C)C)c1ccccc1S2 | inactive | –
38 | CC1=C[N+](=O)c2ccccc2[N+]1=O | inactive: -15.1% [at 7.6 µM] | –
39 | CC(C)Cn1cnc2c(SCc3ccc(Cl)cc3Cl)nc(N)nc21 | – | inconclusive: 2 µM [rising, partial curve]
40 | Cc1ccc(S(=O)(=O)Nc2ccc3c(c2)nc2n3CCN(Cc3ccccc3)C2)cc1 | inconclusive: 62.3% | –
41 | COC(=O)c1c(C(=O)OC)c2oc3ccccc3n2c1Cl | – | active: 12.6 µM
42 | CN(C)c1nc(SCCOC(=O)COc2ccc(Cl)cc2Cl)nc(N(C)C)n1 | inactive | –
43 | Cn1c(SCC(=O)NCc2ccc3c(c2)OCO3)nnc1-c1cc2ccccc2cc1O | inactive | –
44 | O=C(COc1ccc2c3c(c(=O)oc2c1)CCC3)NC1CCCCC1 | – | inconclusive: 25.1 µM [rising, single point]
45 | CN(C)c1ccc(-c2nn3c(C4CCCCC4)nnc3s2)cc1 | – | inconclusive: 0.02 µM [rising, full curve, poor fit]
46 | Cn1c(=O)c(-c2cccs2)nc2cnc(N3CCOCC3)nc21 | inconclusive: 23.5% [fluorescent] | –
47 | CCCC12CN3CC(C)(CN(C1)C31C(=O)Nc3ccc(C)cc31)C2=O (stereo unspecified) | inactive | –
48 | Cc1ccc(-c2nn(-c3ccccc3)cc2CN(Cc2ccccc2)C(=O)CCC(=O)O)o1 | – | inconclusive: 12.6 µM [rising, single point]
49 | Cc1ccc(Cn2nnc3c(=O)n(CC(=O)N4CCN(c5ccccc5)CC4)cnc32)cc1 | – | inconclusive: 0.02 µM [rising, full curve]
50 | CCOC(=O)C1=C(C)NC2=C(C(=O)C(C(=O)OCC)C(c3ccco3)C2)C1c1ccccn1 (stereo unspecified) | – | inconclusive: 12.6 µM [rising, single point]
51 | O=C(O)c1cc(N2C(=O)C3C4C=CC(C4)C3C2=O)ccc1NCc1cccnc1 (stereo unspecified) | inactive | –
52 | COC(=O)c1c(NC(=O)CN2CCOCC2)sc2c1CCC(C)C2 (stereo unspecified) | – | inconclusive: 2.51 µM [rising, partial curve]
53 | CCOc1ccc(CCNC(=O)CCc2nc(-c3ccc(OC)cc3)no2)cc1OCC | – | inconclusive: 0.0631 µM [rising, full curve]
54 | O=C(CC1NC(=O)NC1=O)NC1(C(=O)NC2CCCCC2)CCCCC1 (stereo unspecified) | – | inconclusive: 0.01 µM [falling, full curve, poor fit]

Row | Structure (SMILES) | activity change, negative = inhibition | Potency
55 | COc1cccc(Nc2ncc3nc(-c4cccs4)c(=O)n(-c4ccccc4)c3n2)c1 | – | inconclusive: 7.94 µM [falling, partial curve]
56 | COc1ccc(C2c3c(oc4ccccc4c3=O)C(=O)N2c2ccc(C)cn2)cc1OC (stereo unspecified) | – | inconclusive: 10 µM [rising, partial curve]
57 | Cc1c(C(=O)Nc2ccc3c(c2)OCCO3)sc2nc(-c3ccccc3)cn12 | inconclusive: -20.8% | –
58 | Cc1cc(OCc2nc(-c3cccnc3)no2)c(C)cc1Br | inconclusive: 11.1% | –
59 | COc1ccc2c3c1OC1C[C@@H](O)C=C[C@@]31CCN(C)C2 (stereo partly specified) | inactive | –
60 | COCC(=O)N1CCC2(CC1)CN(C(=O)Nc1ccc(OC)cc1)C2 | inactive | –
61 | N#C[C@H]1CN[C@H](N)N[C@@H]1N | inconclusive: 18.4% [at 7.6 µM] | –
62 | O=C(c1cnccn1)N1CCC2(CCCN(c3ncccn3)C2)CC1 | inactive | –
63 | c1cn(-c2ncnc3ccc(-c4ccoc4)cc23)cn1 | – | inconclusive: 3.16 µM [falling, partial curve]
64 | CC(C)C[C@@H](CC(=O)N[C@@H](CCC(=O)O)CC(=O)O)NC(=O)[C@@H]1CNCC[C@H]1NC(=O)C[C@@H](NC(=O)C[C@H](Cc1c[nH]c2ccccc12)NC(=O)[C@@H]1CNCC[C@H]1N)C(C)C | inactive | –
65 | COc1ccc(-c2noc(CCC(=O)NCCN(C)Cc3ccccc3)n2)cc1 | inconclusive: -29.3% | –
66 | CCc1c(C)sc(NC(=O)c2ccc(Br)o2)c1C(=O)OC | – | inconclusive: 10 µM [rising, partial curve]
67 | Cc1cc(C)n(-c2ccc(-n3ccnc3)nn2)n1 | – | inconclusive: 25.1 µM [rising, single point]
68 | COc1cc2nc(-c3ccc(Br)o3)oc(=O)c2cc1OC | inactive | –
69 | Cc1ccnc(Sc2nc3c(c(=O)[nH]c(=O)n3C)n2CCCc2ccccc2)n1 | inconclusive: 24.1% | –
70 | CCCCN1CC(COc2ccccc2)OC1=O (stereo unspecified) | – | inconclusive: 15.8 µM [falling, single point]
71 | CCNc1ncc2nc(-c3ccc(Cl)cc3)c(=O)n(C3CC3)c2n1 | – | inconclusive: 0.794 µM [rising, full curve]
72 | CC(=O)N1[C@H](C)C=C[C@]1(Cc1ccccc1)C(=O)NCCN1CCOCC1 | inactive | –
73 | COc1ccc(C(c2sc3ncnn3c2O)N2CCN(c3ccccc3F)CC2)cc1OC (stereo unspecified) | – | inconclusive: 10 µM [rising, partial curve]
74 | Cc1cc(C(=O)Nc2sc3c(c2C#N)CCC(C)C3)cs1 (stereo unspecified) | inactive | –
75 | COc1cc(-c2nc(S(=O)(=O)c3ccc(C)cc3)c(N3CCOCC3)o2)cc(OC)c1OC | – | active: 1 µM
76 | O=C(Nc1cccc(-c2nc3cc(Cl)ccc3o2)c1)C1CCCO1 (stereo unspecified) | – | inconclusive: 10 µM [rising, partial curve]
77 | O=C(O)Cn1nc2ccccc2n1 | inactive | –
78 | C/C(N)=C(/C#N)C(=O)CSc1nnc(Nc2cccc(C)c2C)s1 | inconclusive: -11% | –
79 | O=C(NC12CCC(O)C(SC1)/C2=N/O)c1ccccc1 (stereo unspecified) | inactive | –
80 | Cn1c(=O)cc(SCC(=O)Nc2ccc3c(c2)OCO3)c2ccccc21 | – | inconclusive: 10 µM [rising, partial curve]
